The other results are listed elsewhere or left out.

First the molecules themselves.
B1: chr11:130405560:130406128:-|CDS|ENSG00000134917|control|control|control (ssRNA)
RNA: GGGAGUUCUACAGUCCGACGAUCGCUGGGGGACUGGUCUGAGUGCUCUAGCACCUGCGGGGCCGGCUGGCAGAGGCGAACUGUAGAGUGCAGGGACCCCUCCGGCCAGGCCUCUGCCACCUGCAACAAGGCUCUGAAACCCGACAACAGAGGAUUGAGCAUCA
B2: chr16:84177846:84179851:-|three_prime_utr|ENSG00000103168|control|control|control (ssRNA)
RNA: GGGAGUUCUACAGUCCGACGAUCGCAGAGAGACCUGGGCUCCCUCCCUGCGGCAGAGCCACCCCCUGCACCCGAGUCAGGCCUAGAGGACAAGCUCAGUGAGCGCCUGGGGGAAGCCUGGGCAGGCCGAGGGGCUGCCUGGUGCAACAGAGGAUUGAGCAUCA
B3: chr1:113706032:113706133:-|CDS|ENSG00000116793|unk|total|mutant (ssRNA)
RNA: GGGAGUUCUACAGUCCGACGAUCCAAUGCCUAUCAGCAAGGAGCCGGUUAUCAGAUGCUGGGAAAUGUUGUCACUAUUGGAUCCGCAUUUUUUCCAUUCUUACAUCGACUUUUCCGUGAGAAGAGCCUUGACCAACUAAAGUCCAACAGAGGAUUGAGCAUCA
B4: ENSG00000124766:be:win_3951|3pUTR|ENSG00000124766|bound_else_gene|NA|bound_elsewhere_windowed (ssRNA)
RNA: GGGAGUUCUACAGUCCGACGAUCGUUUGGGGGAAAAAAAAGAAAAAAUCAUGCCAGCUAAUCAUGUCAAGUUCACUGCCUGUCAGAUUGUUGAUAUAUACCUUCUGUAAAUAACUUUUUUUGAGAAGGAAAUAAAAUCAGCUGCAACAGAGGAUUGAGCAUCA
B5: ENSG00000198589:be:win_1|CDS|ENSG00000198589|bound_else_gene|NA|bound_elsewhere_windowed (ssRNA)
RNA: GGGAGUUCUACAGUCCGACGAUCAUGGCUAGCGAAGACAAUCGUGUCCCUUCCCCGCCACCAACAGGUGAUGACGGGGGAGGUGGAGGGAGAGAAGAAACCCCUACUGAAGGGGGUGCAUUGUCUCUGAAACCAGGGCUCCCCCAACAGAGGAUUGAGCAUCA
B6: chr1:200665936:200666740:-|CDS|ENSG00000118197|control|control|control (ssRNA)
RNA: GGGAGUUCUACAGUCCGACGAUCCUGGGAAUUUUAGUUCAAGGGCAAGAAGUCACCAGGCCCAUUAUUGACUUUGAACAUUGUAGUCUCCCUGAGGUCUUAAAUCACAACUUGAAGAAAUCAGGCUAUGAGGUGCCAACUCCCCAACAGAGGAUUGAGCAUCA
B7: chr15:59031169:59031386:+|CDS|ENSG00000157450|unk|total|mutant (ssRNA)
RNA: GGGAGUUCUACAGUCCGACGAUCACACCAAGUGAUGAAGAUAAUGAUUCCUCUUUCCGUGAUUGUCUUUCUUCUCCUUCAUCCCGUCUGCAUUUUGGAGAUUCUGAUACUGUGACUUCAGAUGAGGAUAAAGAAGUCUCUGUACAACAGAGGAUUGAGCAUCA
B8: chr20:50584425:50584526:+|3pUTR|ENSG00000196396|msi1|total|mutant (ssRNA)
RNA: GGGAGUUCUACAGUCCGACGAUCACCUCCUAUCCUUGGAGAGCAGCUGGCUCUCCACCUUGUUACACAUUAUGUCCGAGAGGCCGCGAGCUGCUCUGCUAUAUGCCUUAAGCCAAUAUUUACUCAUCAGGUCAUUAUUUUUUACAACAGAGGAUUGAGCAUCA
B9: chr2:73761781:73762859:-|three_prime_utr|ENSG00000144048|control|control|control (ssRNA)
RNA: GGGAGUUCUACAGUCCGACGAUCUAUUCACACAGGAGGUAUUCUUGGAAUGUGAAGCCCAAUGCCAGUCGGGCAGCCCAGGAUAGAAGAAGGUGGUAUCCUUAUAAUUACUCCAGACUCUCCUAUCCAGCCUGUUGGGAAUGGCAACAGAGGAUUGAGCAUCA
B10: chr4:55870735:55870847:+|CDS|ENSG00000090989|unk|total|mutant (ssRNA)
RNA: GGGAGUUCUACAGUCCGACGAUCGGCAUCUGAAAAACAAGUCAACAUCCUGAUGAAAUUGCCCGAUGAGGCUCUAAAGGAGGCCGAUCAGAUUGAAUUGAAACUGAGCAGUUAUGAGGAAAUGCUCCAAAGUGUAAAAGAACACAACAGAGGAUUGAGCAUCA
B11: chr20:37404728:37404829:+|3pUTR|ENSG00000197122|msi1|total|mutant (ssRNA)
RNA: GGGAGUUCUACAGUCCGACGAUCGGCCUCUGCAACUGCUCAGCUCUGGUCCAGGCCCUGUGGCAGGACACACAUGGUGAGCCCCGCCCUGGGACAUCAGGAGACUGGGCUCUGGCUCUGUUCGGCCUUUGGGUGUGUGGUGGACAACAGAGGAUUGAGCAUCA
B12: chr12:100625254:100625355:+|3pUTR|ENSG00000139354|unk|total|mutant (ssRNA)
RNA: GGGAGUUCUACAGUCCGACGAUCAUAUGUAUUAAAUAUGGAGUUCAUAUACCUGCUAAUAUCAACGGUGGUGCUCUUACUAUCCGUUAAUUGCAUUUUGGUUAAAAAAAAAAAAGCAACAGUUUGGCACUUGUCCUACAAAAGCAACAGAGGAUUGAGCAUCA
B13: chr9:96818597:96818698:-|CDS|ENSG00000196597|unk|FALSE|unique (ssRNA)
RNA: GGGAGUUCUACAGUCCGACGAUCGGAGAAACCAUUCGAAUGUCAUGAAUGUGGGAAAUCUUUUAACUAUAAGUCAAUCCUCAUAGUGCAUCAGAGAACUCACACAGGGGAGAAACCUUUUGAAUGUAAUGAAUGCGGGAAAUCCAACAGAGGAUUGAGCAUCA
B14: ENSG00000198589:be:win_451|CDS|ENSG00000198589|bound_else_gene|NA|bound_elsewhere_windowed (ssRNA)
RNA: GGGAGUUCUACAGUCCGACGAUCCUUUUGGUUGACAUGUUGGGAGUGCUGGCUAGCUAUAAUUUGACAGUUCGCGAGCUAAAGCUUUUCUUCAGUAAACUUCAAGGAGAUAAAGGACGAUGGCCUCCACAUGCUGGGAAGUUGCAACAGAGGAUUGAGCAUCA

In this assay the target is MSI1 full-length (mouse, UniProt Q61474 1-362). The assay is described as follows: nsRBNS (natural sequence RNA bind-n-seq); RBNS binding buffer (assumed for nsRBNS): 25 mM Tris pH 7.5, 150 mM KCl, 3 mM MgCl2, 0.01% Triton X-100, 500 ug/ml BSA, 20 U/ml SUPERase-In, 4 C; UNK is unkempt and MSI1 is Musashi-1; names of the RNAs are library labels; protein concentration not given here; high values mean tight binding.
Sequence of UniProt Q61474 (Q61474 whole entry): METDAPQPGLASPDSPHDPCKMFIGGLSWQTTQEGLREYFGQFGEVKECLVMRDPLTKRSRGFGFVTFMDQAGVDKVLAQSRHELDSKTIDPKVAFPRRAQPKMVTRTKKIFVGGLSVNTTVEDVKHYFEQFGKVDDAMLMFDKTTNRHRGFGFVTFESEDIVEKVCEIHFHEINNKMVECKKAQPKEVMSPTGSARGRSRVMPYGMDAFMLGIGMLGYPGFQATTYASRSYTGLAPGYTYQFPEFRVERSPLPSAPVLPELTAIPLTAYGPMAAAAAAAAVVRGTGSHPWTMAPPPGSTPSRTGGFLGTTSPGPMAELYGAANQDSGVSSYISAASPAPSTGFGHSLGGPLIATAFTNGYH
For the molecule B1, the binding signal is 0.472 enrichment R.

Turning to B2, the binding signal came to 0.54 enrichment R.

Molecule B3 came in with a binding signal of 0.27 enrichment R.

With B4, the binding signal was determined as 0.499 enrichment R.

Molecule B5 came in with a binding signal of 0.333 enrichment R.

Turning to B6, the binding signal was found to be 0.563 enrichment R.

B7 gave a binding signal of 0.203 enrichment R.

B8: the binding signal worked out at 4.65 enrichment R.

With B9, the binding signal was 0.407 enrichment R.

B10 showed a binding signal of 0.296 enrichment R.

The molecule B11 yielded a binding signal of 0.334 enrichment R.

B12: the binding signal was 0.371 enrichment R.

In turn, B13 showed a binding signal of 0.426 enrichment R.

For the molecule B14, the binding signal was determined as 0.347 enrichment R.

For the origin of these results see paper PMC12136788.
